Test results reported in patent publication US12485192B2, “Cellular targeted label delivery system” (CELLIS AG, priority 2016, dated 2025).

Test system: CD45+ leukocyte cells (macrophages, monocytes, lymphocytes, granulocytes)
Test: Uptake of iron binding proteins by CD45+ leukocyte cells in culture
Assay type: cell-based, mouse
Conditions: comparison between leukocyte subtypes
Description: (§1) Obtained cells are incubated in ferritin solution for a time and at the concentration sufficient to ensure proper ratio of ferritin/cell for their full load and also to ensure proper contrast content to obtain proper imaging). The time and concentration may vary depending on the number of molecules encapsulated/adsorbed into the ferritin cage, status of cell activation, condition and number of their intended administration.
For example, to ensure proper load with ferritins, cells are incubated for 1-4 hrs in ferritin solution 0.2 mg/ml in standard culture conditions. The frame of ferritin concentration may vary at least between 0.01 and 4 mg/ml as well as incubation time (5 min-6 hrs or more). Adjusting time and concentration of ferritin load to cells, the influence of ferritin and treatment conditions on cell viability should be minded.
as §1, with “haemoglobin” for “ferritin”, “haemoglobin/cell” for “ferritin/cell”, “imaging.” for “imaging).”, “linked with” for “encapsulated/adsorbed into”, “haemoglobin molecule,” for “ferritin cage,”, “administration. […]” for “administration.”

B1: complex comprising haemoglobin and label: haemoglobin covalently or non-covalently bound to a label (conjugate, UniProt P69905 2-142; P68871 2-147, looked up)
Hemoglobin subunit alpha: VLSPADKTNVKAAWGKVGAHAGEYGAEALERMFLSFPTTKTYFPHFDLSHGSAQVKGHGKKVADALTNAVAHVDDMPNALSALSDLHAHKLRVDPVNFKLLSHCLLVTLAAHLPAEFTPAVHASLDKFLASVSTVLTSKYR
Hemoglobin subunit beta: VHLTPEEKSAVTALWGKVNVDEVGGEALGRLLVVYPWTQRFFESFGDLSTPDAVMGNPKVKAHGKKVLGAFSDGLAHLDNLKGTFATLSELHCDKLHVDPENFRLLGNVLVCVLAHHFGKEFTPPVQAAYQKVVAGVANALAHKYH
modifications: label
- relative uptake/loading of complex by leukocyte subtype: significantly larger amounts of this complex could be loaded into M1 macrophages than into M2 macrophages
